Reference: the antibiotic and cytotoxicity screens of Wong et al. (2023)
Some of the results follow.

system: HSkMC (human skeletal muscle cells); experiment: cytotoxicity call (relative viability < 0.9); settings: 10 µM

| SMILES | cytotoxicity call |
| --- | --- |
| C[C@H]1CN([C@@H](C)CO)C(=O)c2cc(NS(=O)(=O)c3cn(C)cn3)ccc2O[C@@H]1CN(C)C(=O)Nc1ccc2c(c1)OCO2 | inactive |
| COc1ccc(CNC(=O)c2cc3c(c(-c4cccc(-c5ccc(C#N)cc5)c4)n2)[C@H](CCO)N([S@@](=O)C(C)(C)C)C3)cc1 | inactive |
| CCCNC(=O)N(C)C[C@@H]1Oc2cc(-c3ccccc3F)ccc2S(=O)(=O)N([C@H](C)CO)C[C@@H]1C | inactive |
| C[C@H](CO)N1C[C@H](C)[C@@H](CN(C)C(=O)NC2CCCCC2)Oc2cc(-c3cccnc3)ccc2S1(=O)=O | inactive |
| COc1ccc(CN(C)C[C@H]2Oc3ccc(NS(=O)(=O)c4c(C)noc4C)cc3CC(=O)N([C@H](C)CO)C[C@H]2C)cc1 | inactive |
| C[C@H]1CCCCO[C@H](CN(C)Cc2ccncc2)[C@@H](C)CN([C@@H](C)CO)C(=O)c2cc(NC(=O)Nc3ccccc3)ccc2O1 | inactive |
| COc1ccc(NC(=O)Nc2ccc3c(c2)C(=O)N([C@@H](C)CO)C[C@H](C)[C@H](CN(C)C(=O)NC2CCCCC2)OCCCC[C@@H](C)O3)cc1 | inactive |
| Cc1ccc2nc(-c3ccc(NC(=O)C4CCC4)cc3)sc2c1 | inactive |
| C[C@@H]1CN([C@@H](C)CO)C(=O)c2cc(NC(=O)Cn3cnnn3)ccc2O[C@@H]1CN(C)S(=O)(=O)c1cn(C)cn1 | inactive |
| C[C@@H]1O[C@H]2Oc3c(-c4ccc(O)cc4)oc4cc(O)c(c(O)c4c3=O)-c3cc(ccc3O)/C=C\C(=O)OC[C@H]3O[C@@H](O[C@H]([C@H]1O)[C@H]2O)[C@H](O)[C@@H](O)[C@@H]3O | inactive |
| COC(=O)c1c(CC[C@@H](CO)NC(=O)N2CCC[C@H]2Cn2cc(C3(O)CCCCC3)nn2)oc(C(C)=O)c1C(=O)OC | inactive |
| O=C(CCCCCCC(=O)Nc1ccc([C@H]2O[C@@H](CSc3nc(-c4ccccc4)c(-c4ccccc4)o3)C[C@H](c3ccccc3)O2)cc1)NO | inactive |
| COc1ccc(S(=O)(=O)Nc2ccc3c(c2)CC(=O)N([C@H](C)CO)C[C@H](C)[C@@H](CN(C)S(=O)(=O)c2cn(C)cn2)O3)cc1 | inactive |
| C[C@H](CO)N1C[C@H](C)[C@@H](CN(C)C(=O)Nc2ccc3c(c2)OCO3)OCc2cnnn2CCCC1=O | inactive |
| Nc1ncccc1O | inactive |

system: HepG2; experiment: cytotoxicity call (relative viability < 0.9); settings: 10 µM

| SMILES | cytotoxicity call |
| --- | --- |
| C[C@@H]1CCCCO[C@@H](CN(C)Cc2ccncc2)[C@H](C)CN([C@H](C)CO)C(=O)c2cc(NC(=O)NC3CCCCC3)ccc2O1 | inactive |
| COc1ccc(NC(=O)Nc2cccc3c2O[C@H](CN(C)Cc2ccc(Cl)c(Cl)c2)[C@H](C)CN([C@H](C)CO)C3=O)cc1 | inactive |
| COc1cccc(NC(=O)N[C@H]2CC[C@@H](CC(=O)N3CCOCC3)O[C@@H]2CO)c1 | inactive |
| Cc1cnc(Nc2ccc(F)cc2Cl)nc1-c1c[nH]c(C(=O)N[C@H](CO)c2cccc(Cl)c2)c1 | active |
| Cc1ncc([N+](=O)[O-])n1C | inactive |
| C[C@@H]1CCCCO[C@@H](CN(C)S(=O)(=O)c2ccc(Cl)cc2)[C@@H](C)CN([C@H](C)CO)C(=O)c2cc(NC(=O)Nc3ccc(C(F)(F)F)cc3)ccc2O1 | inactive |
| COc1ccc([Si](C)(C)[C@@H]2[C@@H](CCO)O[C@]3(C(=O)N(Cc4ccc(N5C(=O)c6ccccc6Oc6ccccc65)cc4)c4ccccc43)[C@H]2C)cc1 | active |
| O=C(NCCCN1CCOCC1)c1ccc(Cl)cc1 | inactive |
| COc1ccc(NC(=O)N(C)C[C@@H]2OCCCC[C@@H](C)Oc3ccc(NC(=O)C4CCCCC4)cc3C(=O)N([C@@H](C)CO)C[C@@H]2C)cc1 | inactive |
| CC1(C)C(=O)C=CC2(C)C1C=CC1(C)C2CCC2(C)C(c3ccoc3)OC(=O)C3OC312 (stereo not given) | active |
| NC/C=C\C(=O)O | inactive |
| Cc1ccccc1CCCCN | inactive |
| CCN1CCN(c2cc3c(cc2F)c(=O)c(C(=O)O)cn3C2CC2)CC1 | inactive |
| C[C@@H]1CN([C@H](C)CO)C(=O)c2cccc(NC(=O)c3ccc(-c4nccs4)cc3)c2O[C@H]1CN(C)S(=O)(=O)c1cn(C)cn1 | inactive |
| COc1ccc(S(=O)(=O)N(C)C[C@@H]2OCCCC[C@@H](C)Oc3ccc(NS(=O)(=O)c4cn(C)cn4)cc3C(=O)N([C@H](C)CO)C[C@H]2C)cc1 | inactive |
| COc1ccc(S(=O)(=O)N(C)C[C@H]2Oc3ccc(NS(=O)(=O)c4ccc(C)cc4)cc3CC(=O)N([C@H](C)CO)C[C@H]2C)cc1 | inactive |
| c1cnc(-c2cn[nH]c2)cn1 | inactive |
| C[C@@H]1CCCCO[C@H](CN(C)Cc2ccc(C(=O)O)cc2)[C@@H](C)CN([C@H](C)CO)C(=O)c2cc(NC(=O)Cc3ccccc3)ccc2O1 | inactive |
| C[C@H](CO)N1C[C@H](C)[C@H](CN(C)S(=O)(=O)c2ccccc2)Oc2ncc(C#CC3(O)CCCC3)cc2C1=O | inactive |
| Cc1noc(C)c1NC(=O)Nc1ccc2c(c1)C(=O)N([C@H](C)CO)C[C@@H](C)[C@H](CN(C)Cc1ccc(-c3ccccc3)cc1)O2 | inactive |

| SMILES | cytotoxicity call |
| --- | --- |
| C[C@@H]1CCCCO[C@@H](CN(C)Cc2ccc(Cl)c(Cl)c2)[C@@H](C)CN([C@@H](C)CO)C(=O)c2cc(NC(=O)Cc3ccccc3)ccc2O1 | inactive |
| CCOc1ccc(C(=O)Nc2ccc(N3CCN(C(=O)c4cccs4)CC3)c(Cl)c2)cc1Br | inactive |
| CO[C@H]1CN(C)C(=O)c2cc(NS(=O)(=O)CC(F)(F)F)ccc2OC[C@@H](C)N(C(=O)c2ccc3c(c2)OCO3)C[C@@H]1C | inactive |
| C[C@H]1CN([C@@H](C)CO)C(=O)c2cc(NC(=O)CCCN(C)C)ccc2O[C@@H]1CN(C)C(=O)Nc1ccc2c(c1)OCO2 | inactive |
| C[C@H](CO)N1C[C@H](C)[C@@H](CN(C)C(=O)Nc2ccc(F)cc2)OCCCC[C@H](C)Oc2ccc(NC(=O)c3ccncc3)cc2C1=O | inactive |
| C[C@H]1CN([C@@H](C)CO)C(=O)c2cc(NS(=O)(=O)c3cn(C)cn3)ccc2O[C@@H]1CN(C)C(=O)Nc1ccc2c(c1)OCO2 | inactive |
| COc1ccc(CNC(=O)c2cc3c(c(-c4cccc(-c5ccc(C#N)cc5)c4)n2)[C@H](CCO)N([S@@](=O)C(C)(C)C)C3)cc1 | inactive |
| CCCNC(=O)N(C)C[C@@H]1Oc2cc(-c3ccccc3F)ccc2S(=O)(=O)N([C@H](C)CO)C[C@@H]1C | inactive |
| C[C@H](CO)N1C[C@H](C)[C@@H](CN(C)C(=O)NC2CCCCC2)Oc2cc(-c3cccnc3)ccc2S1(=O)=O | inactive |
| COc1ccc(CN(C)C[C@H]2Oc3ccc(NS(=O)(=O)c4c(C)noc4C)cc3CC(=O)N([C@H](C)CO)C[C@H]2C)cc1 | inactive |
| C[C@H]1CCCCO[C@H](CN(C)Cc2ccncc2)[C@@H](C)CN([C@@H](C)CO)C(=O)c2cc(NC(=O)Nc3ccccc3)ccc2O1 | inactive |
| COc1ccc(NC(=O)Nc2ccc3c(c2)C(=O)N([C@@H](C)CO)C[C@H](C)[C@H](CN(C)C(=O)NC2CCCCC2)OCCCC[C@@H](C)O3)cc1 | inactive |
| Cc1ccc2nc(-c3ccc(NC(=O)C4CCC4)cc3)sc2c1 | inactive |
| C[C@@H]1CN([C@@H](C)CO)C(=O)c2cc(NC(=O)Cn3cnnn3)ccc2O[C@@H]1CN(C)S(=O)(=O)c1cn(C)cn1 | inactive |
| C[C@@H]1O[C@H]2Oc3c(-c4ccc(O)cc4)oc4cc(O)c(c(O)c4c3=O)-c3cc(ccc3O)/C=C\C(=O)OC[C@H]3O[C@@H](O[C@H]([C@H]1O)[C@H]2O)[C@H](O)[C@@H](O)[C@@H]3O | inactive |
| COC(=O)c1c(CC[C@@H](CO)NC(=O)N2CCC[C@H]2Cn2cc(C3(O)CCCCC3)nn2)oc(C(C)=O)c1C(=O)OC | inactive |
| O=C(CCCCCCC(=O)Nc1ccc([C@H]2O[C@@H](CSc3nc(-c4ccccc4)c(-c4ccccc4)o3)C[C@H](c3ccccc3)O2)cc1)NO | inactive |
| COc1ccc(S(=O)(=O)Nc2ccc3c(c2)CC(=O)N([C@H](C)CO)C[C@H](C)[C@@H](CN(C)S(=O)(=O)c2cn(C)cn2)O3)cc1 | inactive |
| C[C@H](CO)N1C[C@H](C)[C@@H](CN(C)C(=O)Nc2ccc3c(c2)OCO3)OCc2cnnn2CCCC1=O | inactive |
| Nc1ncccc1O | inactive |
